# Source: publication PMC10668032
# This is one part of the list. At the low end of the ranking the order means little.
# Biological target: SIX1-Q177R homeodomain (UniProt Q15475)
# Experiment: universal protein binding microarray
# Conditions: Universal all-10-mer PBM (8x60K, AMADID 030236), 300 nM GST-tagged protein, Alexa Fluor 488 anti-GST; buffer, salt, pH and temperature not stated; high values mean tight binding; most listed sequences are background and not binding sites; double strand, one strand shown
row,Sequence,binding signal
1,AGTTGCGG,0.0493 E-score
2,ACATGGGA,-0.149 E-score
3,GCGGCATA,-0.064 E-score
4,AAGATGCA,0.0269 E-score
5,CAACCGTG,0.187 E-score
6,ACTGTTCG,0.0168 E-score
7,CCCTGCCA,0.0244 E-score
8,GGGGATCA,0.275 E-score
9,CCTTAACG,-0.138 E-score
10,CTTTTGGC,-0.155 E-score
11,CCGACCAA,0.005 E-score
12,CAAAAGAA,-0.185 E-score
13,GATTGATA,-0.0198 E-score
14,AGAAGCCA,-0.173 E-score
15,AACGAGAC,-0.161 E-score
16,GTTCGAAA,-0.00426 E-score
17,GCAACTGA,0.0207 E-score
18,CGGAAAAG,-0.0876 E-score
19,ATAGTTAC,0.0502 E-score
20,TAGGATCA,0.0358 E-score
21,CCCCAGGC,0.0175 E-score
22,CTTAAGAC,-0.123 E-score
23,CTTAGTTC,-0.2 E-score
24,AACAATTG,-0.192 E-score
25,GAGATGGC,-0.0935 E-score

row,Sequence,binding signal
1,GCCCCGCA,-0.103 E-score
2,CTCCCGGA,0.0547 E-score
3,GCAGTGGA,-0.0627 E-score
4,CTTGCCGC,-0.257 E-score
5,TAGAAGGA,-0.181 E-score
6,TGAAGCAA,-0.125 E-score
7,TTATAAAA,-0.237 E-score
8,TGTTAGAA,0.124 E-score
9,CGGCAACG,-0.0411 E-score
10,CGTATTTC,-0.191 E-score
11,AGGGGGGC,-0.108 E-score
12,ATTGTATG,-0.344 E-score
13,ATACCAGC,0.0752 E-score
14,ACCTGTCG,0.118 E-score
15,ACAAAGGC,-0.185 E-score
16,CGCCGAAA,-0.00719 E-score
17,CAGGGCCA,-0.223 E-score
18,ACCAAGCG,0.119 E-score
19,CAGCATAA,-0.139 E-score
20,AACCTAGC,-0.16 E-score
21,ACAGCCCT,-0.175 E-score
22,ATGCGGAG,-0.0279 E-score
23,GTAGGGCA,0.0592 E-score
24,ATGATTGA,0.0256 E-score
25,CGCTTGAC,0.00122 E-score

row,Sequence,binding signal
1,ATTAGGCC,-0.154 E-score
2,AGAGGTGA,-0.0211 E-score
3,CGTGCACC,0.182 E-score
4,CTATCATA,-0.142 E-score
5,CGGGAGCA,-0.203 E-score
6,CAGAGCCG,-0.267 E-score
7,CATGAGCC,-0.0813 E-score
8,ATCGACCC,0.163 E-score
9,TCGGCAGA,0.0205 E-score
10,AATCCTTG,0.00882 E-score
11,TCAATGGA,-0.046 E-score
12,CCGGTTAG,-0.0489 E-score
13,CTTTAAAA,-0.21 E-score
14,CCTAGAAA,-0.11 E-score
15,TATTAATA,0.112 E-score
16,GTTCAATA,-0.12 E-score
17,TAGGGATA,0.0133 E-score
18,GTAACACA,0.223 E-score
19,CCCGACGC,0.151 E-score
20,ACGGCCTC,-0.0201 E-score
21,CGAGGCGA,-0.117 E-score
22,ACGACGGA,-0.0158 E-score
23,CAAATATC,-0.118 E-score
24,AACATGAA,-0.159 E-score
25,TAAGTCCA,-0.0628 E-score

row,Sequence,binding signal
1,TCACATCA,-0.24 E-score
2,CAACTGTC,-0.16 E-score
3,TCTTGACA,0.167 E-score
4,CCAGGGCA,0.0379 E-score
5,GTGAAACA,0.0907 E-score
6,TGGGCTAA,-0.0864 E-score
7,AAGATCCC,0.0117 E-score
8,AAAACGCA,0.0963 E-score
9,CTAATAAG,-0.18 E-score
10,GTCCTGCA,-0.0061 E-score
11,GGGGCGAA,-0.137 E-score
12,GTTCTACA,0.239 E-score
13,CGGTCGGA,0.0239 E-score
14,AGCGGGAG,-0.233 E-score
15,CGAATCCC,0.0729 E-score
16,TGATAACA,0.153 E-score
17,GCAAAGGA,-0.0149 E-score
18,GAGGTGGC,-0.214 E-score
19,ATATGTTC,0.0719 E-score
20,AGTGTTTA,0.296 E-score
21,GTTCACGA,0.0352 E-score
22,AGTAAGCG,0.103 E-score
23,GAATATGA,-0.172 E-score
24,CCCGGTCA,0.0247 E-score
25,CAAGCCAC,0.0319 E-score

row,Sequence,binding signal
1,CAGTGGAC,-0.208 E-score
2,GTTCCAAC,-0.0199 E-score
3,CAGCGCCG,-0.118 E-score
4,ATACCGTG,0.301 E-score
5,ATTGCGAA,-0.00749 E-score
6,CTTCTCCC,-0.202 E-score
7,AAAGCACA,-0.0697 E-score
8,GTTAAACA,0.146 E-score
9,AGTTACAA,0.038 E-score
10,AGTTAAAG,-0.00374 E-score
11,CGAAGCGA,-0.0284 E-score
12,CAATAACC,-0.164 E-score
13,CCGATCGG,-0.0749 E-score
14,ACTCACTA,-0.0869 E-score
15,ACAATTCA,0.053 E-score
16,TCCCTCCA,-0.194 E-score
17,AATGGTTG,-0.171 E-score
18,ACGATAGT,0.157 E-score
19,CGTCACAC,0.288 E-score
20,ATGCATAA,-0.168 E-score
21,GTTCTCCA,-0.191 E-score
22,AAGATGGA,-0.107 E-score
23,CAAACCGG,-0.0474 E-score
24,CCCACTCA,0.148 E-score
25,AGATTCTC,-0.1 E-score

row,Sequence,binding signal
1,CTGGTCAA,-0.0008 E-score
2,CAGACTCC,-0.128 E-score
3,CTTGCAAA,-0.235 E-score
4,AACGGATC,0.184 E-score
5,ATCGTCAA,0.134 E-score
6,GACCGGGC,-0.0031 E-score
7,CTCACCCA,0.0665 E-score
8,CGTTCTGC,-0.146 E-score
9,CAACGACG,-0.0358 E-score
10,CGCGTAAC,-0.0289 E-score
11,CATCTCGG,-0.0625 E-score
12,GCCCAGAA,-0.312 E-score
13,AATACATG,-0.111 E-score
14,AAGTAGAC,-0.156 E-score
15,ATGGCGAG,-0.0298 E-score
16,CCAGACCA,-0.11 E-score
17,GGAATACC,0.00038 E-score
18,TACGCAGA,-0.0348 E-score
19,CCTATACA,0.142 E-score
20,GGACCTAC,0.0208 E-score
21,CCTCCCCC,-0.0748 E-score
22,CTGAGCGC,-0.0844 E-score
23,CAATTGCG,-0.283 E-score
24,AGCATCGG,-0.241 E-score
25,AATTCCTA,-0.0786 E-score

row,Sequence,binding signal
1,AGGCCGAG,-0.0412 E-score
2,GCACCAGC,0.142 E-score
3,CACTAGGA,0.135 E-score
4,GAGACGAC,0.0983 E-score
5,CCGTCGTA,-0.0385 E-score
6,GCCGAAAC,0.02 E-score
7,ACAATGAC,0.111 E-score
8,CATTAATA,-0.11 E-score
9,CGCTACAC,0.402 E-score
10,CAGCCTCG,-0.197 E-score
11,GCTCCACC,-0.0871 E-score
12,CGAAACGC,-0.144 E-score
13,CAAAATTC,-0.0559 E-score
14,CCCGAGCG,0.078 E-score
15,CTAAAGAA,-0.162 E-score
16,CGAGCACA,0.0753 E-score
17,ACATTGTA,-0.213 E-score
18,CGGATACA,0.294 E-score
19,ATGGCCCA,-0.303 E-score
20,AGCGGAAC,-0.073 E-score
21,AGTCACCC,-0.00406 E-score
22,CCGGTGCA,0.203 E-score
